Experimental data: patent US20220408731A1, “MODIFIED ANTIMICROBIAL PEPTIDES” (priority 2021, published 2022)

Columns and labels:
[1] = tested on: C. albicans; assay: Peptide or protein/Fluconazole combination, MIC and FICI; conditions: Full Length MtDef4 Protein/Fluconazole combination
[2] = tested on: C. glabrata; assay: as above; conditions: Full Length MtDef4 Protein/Fluconazole combination

Compound: OC(Cn1cncn1)(Cn1cncn1)c1ccc(F)cc1F [Fluconazole]
- MIC in combination (μM) [1]: 6.45 µM
- MIC in combination μg/ml [1]: 2 µg/mL
- MIC in combination [2]: 206 µM
